Usually inhibition stands for the drop in the measured response relative to a control, in per cent.

Screen size: about 340,000 compounds; about 6,900 (2%) were called active. Rule as the data show it: active = inhibition above about 30%; inactive = below that, where a call was filed. Only a part is listed here, and it is no random draw. Where no call is shown, the source filed none.

Chain of UniProt P14416 (P14416 whole entry, looked up): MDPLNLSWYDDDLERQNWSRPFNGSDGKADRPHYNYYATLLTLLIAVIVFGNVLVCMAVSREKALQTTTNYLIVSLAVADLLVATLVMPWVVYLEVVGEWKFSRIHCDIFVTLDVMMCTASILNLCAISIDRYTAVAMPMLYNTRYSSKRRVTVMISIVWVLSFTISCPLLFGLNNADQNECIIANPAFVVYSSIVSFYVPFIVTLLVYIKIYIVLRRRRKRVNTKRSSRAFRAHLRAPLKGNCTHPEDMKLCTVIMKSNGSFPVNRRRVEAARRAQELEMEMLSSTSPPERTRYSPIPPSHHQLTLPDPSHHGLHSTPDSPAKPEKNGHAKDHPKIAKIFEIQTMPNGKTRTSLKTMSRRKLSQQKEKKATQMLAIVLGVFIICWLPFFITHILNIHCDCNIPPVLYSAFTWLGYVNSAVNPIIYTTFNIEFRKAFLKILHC

This test addresses D(2) dopamine receptor (Homo sapiens) (UniProt P14416). Nature of the test: HTS Assay for Allosteric Antagonists of the Human D2 Dopamine Receptor: Primary Screen for Antagonists. Also: 0% is about no effect. The conditions noted are these: HEK293 TREx D2 cells, calcium flux, dopamine EC80; at 10 µM; stronger effect = higher value. Summed up:
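Read-out: kinetic calcium fluorescence (1 cycle/s) in inducible HEK293 T-REx D2 cells after an EC80 dopamine addition that followed 180 s compound preincubation. Loss of the dopamine response indicates antagonism.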
Background: A change in cytosolic calcium serves as a functional read-out for many receptors and channels.
`Cc1cc2nn(-c3ccc(F)cc3)nc2cc1NC(=O)c1ccc(OC(C)C)cc1`: the inhibition was -14.3%.
As for `Cc1ccc2nc(Cl)c3cc(C(=O)N(C)C4CCCCC4)sc3c2c1`, the inhibition was -14.7%.
Regarding `CC1CN(c2ncnc3c2cnn3-c2ccc(Cl)cc2)CC(C)O1` (configuration not stated), the inhibition is active: 31.2%.
For the compound `CCOC(=O)c1sc(C)c2c(=O)n(Cc3ccc(Cl)cc3)c(C)nc12`, the inhibition is active: 37.7%.
As to `COc1ccc(C2c3cccn3CCN2S(=O)(=O)c2ccccc2[N+](=O)[O-])cc1OC` (configuration not stated), the inhibition was -0.851%.
On to `O=C(NCC(c1ccc2c(c1)OCO2)N1CCOCC1)c1ccccc1F` (configuration not stated), for which the inhibition turned out to be 15.5%.
In the case of `CCc1ccc(CNC(=O)CCc2c(C)nn(-c3ccc(N4CCCCC4)nn3)c2C)cc1`, the inhibition came out at 0.205%.
The same measure for `Cc1cccn2cc(-c3cccc(NS(=O)(=O)c4ccc(Cl)c(Cl)c4)c3)nc12`: 1.08%; for `CCc1ccc2occ(CC(=O)Nc3c(C(=O)Nc4ccc(OC)cc4)oc4ccccc34)c2c1`: 13.5%; for `CC(CNC(=O)Cn1ccc2cc(S(=O)(=O)N3CCCCC3)ccc21)c1ccccc1` (configuration not stated): 1.7%.
The same measure for `CC(COc1ccccc1)NC(C)C(O)c1ccc(O)cc1` (configuration not stated): active: 90.3%; for `COc1ccc(-c2cc(C(F)F)n3ncc(C(=O)Nc4cc(OC)ccc4OC)c3n2)cc1`: -2.78%.
The same measure for `CCOc1ccc(NC(=O)Cc2coc3ccc(C)cc23)cc1`: -3.02%; for `COc1ccccc1NC(=O)CSc1ccc(-c2sc(C)nc2C)nn1`: 13.8%.
For `COc1cccc(CNCCSc2nnnn2C)c1OCc1ccc(Cl)cc1Cl`, the inhibition came out at 5.58%.
For `COc1ccccc1CNC(=O)Cn1c(=O)oc2cc(S(=O)(=O)N3CCC(C)CC3)ccc21`, the inhibition is -12.6%.
In the case of `CCC(Nc1ccc(-c2nc(-c3ccco3)no2)cc1[N+](=O)[O-])c1ccccc1` (configuration not stated), the inhibition was found to be 5.21%.
`CN(C)C(CNC(=O)c1ccc(-c2ccccc2)cc1)c1ccccc1` (configuration not stated): the inhibition is active: 30.7%.
For the compound `Cc1cccc(-c2nc(CCNC(=O)Cc3ccc(F)cc3)cs2)c1`, the inhibition was -24.2%.
On to `COc1ccc(-c2c(C#N)c(SCC(=O)Nc3ccccc3C)nc(C)c2C(=O)Nc2ccccc2)cc1OC`, for which the inhibition is -4.74%.
For the compound `COCCCNC(=O)CSc1nc(-c2cccc(F)c2)[nH]c1-c1ccccc1`, the inhibition is -6.12%.
The same measure for `N#C/C(=C\c1ccc(Cl)cc1)C(=O)NCC1CCCO1` (configuration not stated): 4.52%; for `Cn1cc(S(=O)(=O)c2ccccc2)c(=O)c2cc(F)c(N3CCOCC3)cc21`: -6.38%.
For `COc1ccc(CCN2C(=O)N(c3ccc(F)cc3)C(=O)C2CC(=O)Nc2ccccc2)cc1` (configuration not stated), the inhibition worked out at 5.48%.
Take `CCC1CCCCN1S(=O)(=O)c1ccc(NC(=O)c2cc(=O)c3ccccc3o2)cc1` (configuration not stated): the inhibition was -6.69%.
For `CCN(CCCNC(=O)c1cc2c(=O)[nH]c3ccccc3c2s1)c1ccccc1`, the inhibition was -11.9%.
In the case of `O=S(=O)(c1ccc(-n2cnnn2)cc1)N1CCN(c2ccccc2F)CC1`, the inhibition amounted to 0.0819%.

The values above are taken from PubChem BioAssay AID485344 (National Center for Advancing Translational Sciences (NCATS), 2010).
